Data reported in PubChem BioAssay AID686978 (National Center for Advancing Translational Sciences (NCATS), 2013).
About 64,000 (15%) of roughly 420,000 compounds were called active. Inconclusive results, whose numbers are uncertain, are shown with a selection of clear calls. Calls come from the whole dose curve; as a rule, active = well fitted inhibition curve with a large enough effect; inconclusive = small, poorly fitted or top-dose-only effect; inactive = flat fitted curve, though single readings scatter. No potency is given beside an inconclusive call; the fits are too rough.

Experiment: qHTS for Inhibitors of human tyrosyl-DNA phosphodiesterase 1 (TDP1): qHTS in cells in absence of CPT; note: nearly all actives have a fitted effect of over 55% in size
Settings: DT40 Tdp1-/- hTDP1 cells, no CPT, ATP luminescence, 48 h; activity change, negative = growth inhibition: at 46.2 µM (top of the series) unless noted
In short: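 Growth of hTDP1-complemented DT40 Tdp1-knockout cells is measured by ATP luminescence after at least 48 hr compound exposure at 37 °C, with DMSO substituting for the 20 nM CPT used in the parallel screen.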
% is set by controls: 0 for no effect and ±100 for the full control effect; potency is the fitted concentration of half-maximal effect; tags give direction and shape of the fitted curve.

Structure (SMILES)	Potency	activity change, negative = growth inhibition
Cc1ccc2[nH]c(=O)c(CN3CCCCC3)c(-c3ccccc3)c2c1	inconclusive [inhibitor, single point]	
N#CC1=C(N)SC(N)=C(C#N)C1c1c(Cl)cccc1Cl	inconclusive [inhibitor, single point]	
CCOC(=O)CN1C(=O)CC(c2ccc([N+](=O)[O-])cc2)C1=O (centres undefined)		inactive: 5.22%
Cc1ccc(S(=O)(=O)N2CCCCC2)cc1NC(=O)CN1C(=O)c2ccccc2S1(=O)=O		inactive: 14%
CCC(C)C(CO)NCCCn1cnc(C(=O)Nc2ccc(C)c(C)c2)n1 (centres undefined)		inconclusive: -30.7% [inhibitor]
CCCCNC(=O)C(CC)(ONc1ccccc1C(F)(F)F)c1ccccc1 (centres undefined)	inconclusive [inhibitor, single point]	
Cc1cccc(N2CN=C3SCC(=O)N3C2)c1	inconclusive [inhibitor, single point]	
COC(=O)[C@]12CCCCC=C1N(CCC1=CCCCC1)C(=O)[C@H](CC(=O)NCCc1ccccc1OC)C2	inconclusive [inhibitor, single point]	
COc1cc(/C=N/NC(=O)c2cccnc2)ccc1OC(=O)c1cc(OC)c(OC)c(OC)c1	inconclusive [inhibitor, single point]	
Cc1cccc(NC(=O)CN2C(=O)N/C(=C/c3ccc(C)o3)C2=O)c1		inactive: -29.6%
CC1CCCC(NC(=O)CN2CCN(S(=O)(=O)c3ccc(Br)s3)CC2)C1C (centres undefined)	active: 18.4 µM	
CNC(=S)N1N=C(c2ccc(Br)cc2)CC1c1ccc(Br)cc1 (centres undefined)	active: 11.6 µM	
COc1ccc2cc3cc(C(=O)Nc4cc(C)c(Cl)cc4OC)oc3nc2c1	inconclusive [inhibitor, full curve, poor fit]	
CCc1cccc(CC)c1NC(=O)C1CCC(CNS(=O)(=O)c2cccc3nsnc23)CC1 (centres undefined)		inconclusive: -31.3% [inhibitor]
CC1=C(C(=O)Nc2ccccc2)C(c2ccc(C)cc2)N=C(Nc2nc3ccccc3o2)N1 (centres undefined)	inconclusive [inhibitor, single point]	
COc1ccc(S(=O)(=O)Nc2cccc(-c3ccc4nncn4n3)c2)c(OC)c1	inconclusive [inhibitor, partial curve]	
CCCn1c(=O)c(C(=O)NCCc2ccc(OC)cc2)c(O)c2ccccc21	inconclusive [inhibitor, single point]	
COc1cc2c(cc1OC)CN(C(=O)Cc1ccccc1)CC2		inactive: -20.4%
Cn1cc(CNCc2ccc(-n3cccn3)cc2)c(-c2ccccc2F)n1	active: 20.6 µM	
O=C(CSCc1ccc(Br)cc1)Nc1ccc(S(=O)(=O)N2CCCCCC2)cc1	inconclusive [inhibitor, single point]	
COc1cc(Cl)c(NC(=O)c2cc(S(=O)(=O)N3CCCCC3)c[nH]2)c(OC)c1		inactive: -18.3%
Cc1ccc(NC(=O)C(C)OC(=O)c2ccc(NS(=O)(=O)c3ccc(F)c(F)c3)cc2)cc1 (centres undefined)	inconclusive [inhibitor, single point]	
Cc1cc(N/N=C/c2cccc(Br)c2)nc2ccccc12		inactive: -24.7%

Structure (SMILES)	Potency	activity change, negative = growth inhibition
Cc1ccnc(NC(=O)c2ccc([N+](=O)[O-])o2)c1	inconclusive [inhibitor, single point]	
CN(c1ccccc1)S(=O)(=O)c1cccc(NC(=O)CCNC(=O)c2ccc(Cl)cc2)c1	inconclusive [inhibitor, partial curve]	
CCCC1CC(C(=O)N[C@H](C(C)O)C2OC(SC)[C@@H](O)C(O)C2O)N(C)C1 (some centres undefined)		inactive: -5.14%
C[C@]12c3[nH]c4ccc(Cl)cc4c3CCN1C(=O)[C@@H](CC(=O)NCc1cccc(C(F)(F)F)c1)C[C@@H]2C(=O)N1CCOCC1	inconclusive [inhibitor, single point]	
CC(CN1C(C)CCCC1C)OC(=O)c1ccc(F)cc1 (centres undefined)		inactive: -5.42%
O=C(c1ccc(Cl)c(S(=O)(=O)N2CCOCC2)c1)N1CCOCC1		inactive: -11.1%
Cc1ccc(CN(Cc2cc3cc4c(cc3[nH]c2=O)OCCO4)Cc2nnnn2Cc2ccco2)cc1	inconclusive [inhibitor, single point]	
COc1ccc(-c2cc(CCCC(=O)NCCc3ccccc3)no2)cc1	inconclusive [inhibitor, single point]	
CCN(CC(=O)Nc1ccccc1C(F)(F)F)C(=O)Cc1ccc2c(c1)CCC2	inconclusive [inhibitor, single point]	
CCOC(=O)c1cc2cc([N+](=O)[O-])cc(OC)c2oc1=O		inactive: 10.5%
O=C(Nc1ncn[nH]1)c1cccc(S(=O)(=O)N2CCOCC2)c1		inactive: -0.876%
CC(=O)c1cccc(NS(=O)(=O)c2cc(-c3onc(C)c3C)ccc2C)c1		inactive: -19.9%
Cc1ccc(NC(=O)c2ncn(CC(=O)N3CCN(c4ccccn4)CC3)n2)cc1C	inconclusive [inhibitor, partial curve]	
CCCCCCn1c(=O)c(-c2ccccc2)c(O)c2ccccc21		inactive: -21.7%
COc1ccc(NS(=O)(=O)c2ccc(-c3coc(C)n3)cc2)cc1OC	active: 2.06 µM	
O=C(O)CSc1nc(C(F)(F)F)cc(=O)n1-c1ccccc1		inactive: -13.1%
Cc1ccc(-c2cc(C(=O)OCC(=O)N(C)c3c(N)n(Cc4ccccc4)c(=O)[nH]c3=O)c3ccccc3n2)o1	inconclusive [inhibitor, single point]	
CN(C(=O)/C=C/c1ccc2c(c1)OCO2)c1ccccc1	inconclusive [inhibitor, single point]	
Nc1nn(-c2ccccc2)c2ccc([N+](=O)[O-])cc12	inconclusive [inhibitor, partial curve, poor fit]	
Cc1ccc(S(=O)(=O)N2CCN(C3CCN(Cc4ccccc4)CC3)CC2)cc1		inconclusive: -37.1% [inhibitor]
COc1ccc(/C=C/C2=CCN(Cc3ccc(OC)cc3)CC2)cc1		inactive: -27.8%
CC[C@]12c3[nH]c4ccccc4c3CCN1C(=O)C(CC(=O)NCCCN(C)C)C[C@@H]2C(=O)N1CCN(C(=O)C2CC2)CC1 (some centres undefined)		inactive: 1.26%
COc1ccccc1CC(NC(C)=O)C(=O)NC1CCN(C(=O)Nc2ccccc2F)CC1 (centres undefined)		inactive: -5.42%

Structure (SMILES)	Potency	activity change, negative = growth inhibition
CC(=O)NC(c1ccc(F)c(F)c1)c1nc(-c2cc3ccccc3o2)cs1 (centres undefined)	inconclusive [inhibitor, single point]	
CCc1nc2ccc(C(=O)Nc3ccc4c(c3)OCO4)cc2nc1CC	inconclusive [inhibitor, partial curve, poor fit]	
O=C(CSc1nnc2c(n1)[nH]c1ccc(S(=O)(=O)N3CCOCC3)cc12)Nc1ccccc1Cl		inactive: -23.1%
COc1cc(-c2cc(C(F)(F)F)n3ncc(C(=O)O)c3n2)cc(OC)c1OC		inactive: -5.02%
O=C(/C=C/c1ccco1)Nc1cccc(NC(=O)/C=C/c2ccco2)n1	active: 20.6 µM	
CC1(Cc2ccc(Cl)cc2)C(=O)Nc2ccc(S(=O)(=O)NC3CCCCC3)cc21 (centres undefined)	inconclusive [inhibitor, single point]	
CCN(CC)C(=O)c1ccccc1NC(=O)c1cccc(S(=O)(=O)N(CC)CC)c1		inactive: -10.2%
CCOC(=O)c1ccc(NC(=O)c2cccc(S(=O)(=O)N3CCOCC3)c2)cc1	active: 11.6 µM	
CC(C)C[C@H](NC(=O)c1nc[nH]c1C(=O)NCc1ccccc1)C(=O)OCc1ccccc1	inconclusive [inhibitor, single point]	
CC(C)(C)c1nnc(NC(=O)C2c3ccccc3Oc3ccccc32)s1	inconclusive [inhibitor, partial curve, poor fit]	
CC(=O)Nc1cc2c(cc1C(=O)c1ccc(C)cc1)OCCO2		inactive: 2.54%
Cn1c(SCC2CCCO2)nnc1C1CCN(Cc2ccc(-c3cccc(Cl)c3)o2)CC1 (centres undefined)	inconclusive [inhibitor, single point]	
CCOc1ccccc1NC(=O)CSc1nc2c(sc3ccccc32)c(=O)n1CCCC(=O)NC1CCCC1	inconclusive [inhibitor, full curve, poor fit]	
Cc1cccc2cc(CN(Cc3ccco3)C(=O)c3ccncc3)c(=O)[nH]c12	inconclusive [inhibitor, partial curve]	
Cc1cccc(C)c1OCc1cc(C(=O)N(C)Cc2nc3ccccc3[nH]2)no1	inconclusive [inhibitor, single point]	
CCOC(=O)C1=C(c2ccccc2)N(C)C(=O)NC1c1ccc(OC(F)F)c(OC)c1 (centres undefined)	inconclusive [inhibitor, single point]	
CCOC(=O)Nc1ccc2c(c1)N(C(=O)CCN(CC)CC)c1ccccc1CC2	inconclusive [inhibitor, single point]	
COc1cccc(CNC(=O)c2ccc(CNS(=O)(=O)c3ccc(C)cc3)cc2)c1	inconclusive [inhibitor, partial curve]	
Cc1ccc(OCCn2c(C)nc3ccccc32)cc1	inconclusive [inhibitor, single point]	
COc1cc(C(=O)NNC(=O)CNC(=O)c2ccc(Br)o2)cc(OC)c1OC		inactive: 4.59%
CCOC(=O)c1cccc(NC(=O)C(NS(=O)(=O)c2ccc3c(c2)CCN3C(C)=O)C(C)C)c1 (centres undefined)		inactive: -10.6%
CC(C)(CSc1ccccn1)NS(=O)(=O)c1ccc(Cl)cc1		inactive: -22.2%
CC1CCN(S(=O)(=O)c2cc(C(=O)NC3(C)CCS(=O)(=O)C3)ccc2Br)CC1 (centres undefined)		inactive: 9.8%
